Results published in the supplement of paper PMC4466236.
In all, about 33,000 sequences were measured (“E-score (dimensionless, -0.5 to 0.5)”: median about -0.058, highest 2% from about 0.35 on). Some of the results follow.

System: MvaT
Assay: PBM 8-mer E-score (mean of HK and ME arrays) (E-score (dimensionless, -0.5 to 0.5)); higher = stronger relative binding preference; most listed sequences are background and not binding sites
Outline: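 Reported values are rank-based E-scores, taken as the mean of two universal arrays and parsed with a custom script. Each 8-mer score falls between -0.5 and 0.5. The arrays, ME and HK, were double-stranded 60-mers with a constant 25-mer primer region and a variable 35-mer region covering all 8-mers. They were probed, by an earlier protocol, with full-length P. aeruginosa MvaT carrying an N-terminal glutathione S-transferase fusion.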

Sequence	PBM 8-mer E-score
ACGGGGGC	-0.433
TCGCCACA	-0.00922
CGCCACAA	0.0207
ACTCCCCT	-0.175
CAAAGTGC	-0.159
GATCCTAC	-0.3
CGAGACGC	-0.318
AATACATT	0.374
AGGAGCAT	-0.217
AGTTAACC	0.142
AAACGCTT	0.0352
TCTTAACA	0.0603
CACTTGAA	0.0218
CGCATAGA	-0.151
CAGTCAAA	0.103
ACAGGCAC	-0.193
CCCGATGA	-0.2
TATGGCGA	0.0492
ATAGAGAA	0.199
AGATAAGA	0.0332
CTTACAGA	-0.0453
AGCGCAGC	-0.322
CAATGCAG	-0.057
CGTGACTA	-0.0475
CTAATCGA	-0.0806

Sequence	PBM 8-mer E-score
AATACCGA	0.126
ACTCTGAA	0.00253
ACAATGTC	-0.0401
AAAAGTGG	-0.00486
CCCTGCGG	-0.218
AACACTCT	-0.0432
ATTACTCA	0.192
ACTATGCC	0.0442
CCAAATGC	0.0103
AGTACTAT	0.236
CGCTATAA	0.192
TCGGGTCA	-0.155
AGCCAGTG	-0.203
ATCCGCCG	-0.181
AGTTGTTA	0.262
AAGCGTGT	-0.0993
CAGACGAG	-0.0992
CGCTTAAC	0.0253
GGGCCACA	-0.0584
ATTCGCGC	-0.09
CCGTCGTC	-0.0566
CCGTATCG	-0.15
CCGCGCAG	-0.274
AAGGTCCA	-0.117
GTGTTGAA	0.0263

Sequence	PBM 8-mer E-score
GACCGATC	-0.158
ATTGAATG	0.188
CAAGTACG	-0.0518
AGTCCTCA	-0.0791
ATCCTGCA	-0.0152
CGCAGACG	-0.185
AGAAGCCC	-0.176
CATAGGTC	-0.177
GGGCCCCA	-0.209
CTTACATA	0.256
CAATCGTC	-0.0558
ACGAAGGG	-0.289
CCGTCACA	-0.104
TACTTTCA	0.264
GGCGTTAC	-0.109
ACCTTAGG	-0.117
ACGTAGGC	-0.247
AGATACCG	-0.0154
CTTGGCTC	-0.309
AGCGGAGG	-0.323
AACCTATC	-0.0668
AAAGCTCT	-0.227
GAATCACA	-0.0829
CCCCCTTA	-0.162
AGCTTGAC	-0.164

Sequence	PBM 8-mer E-score
CCCTACTC	-0.233
AATCTACA	-0.00432
AGTGACAC	-0.0401
ACGGCGGA	-0.204
CCGGGCCC	-0.36
AGTACCAA	0.0222
AGCACGTC	-0.121
CAAAGGGA	-0.0943
TGCGTTAA	0.0631
CCATAGAA	0.0305
CAAATTCC	-0.0407
CACGGTTA	0.0326
GTATCACA	0.0841
TTACAGAA	0.16
AACATCAC	0.061
GGAATCGA	0.0138
ATACACAC	0.151
AGTCGTGG	-0.0561
GAACAAAC	0.125
CGGATGTA	-0.0214
AGGAGGCA	-0.256
AGGCTTCC	-0.288
CCCGTGAA	-0.129
TTGGTAAA	0.213
GAATCGCC	-0.206

Sequence	PBM 8-mer E-score
GTAGAAAA	0.0782
TGATCTAA	0.0137
GGTCTGAA	-0.0639
AGCCGATA	0.147
GCTGTGGA	-0.0892
ACAGACGG	0.038
AAATGGCC	0.0191
ACTTACGG	0.0941
ATGAGGCC	-0.185
CTTGACTC	-0.192
CGCTACTA	0.0641
GCCAAGTA	0.0612
GAGTGCCA	-0.148
ATAGAGAT	0.121
GCAGCCGA	-0.257
ATCATATC	0.135
GACAATGA	0.0582
ACATTGCG	0.0134
AACACCCA	0.0624
GCGCTGTA	-0.163
GCACGAAA	-0.0312
ATTCGTGA	-0.0182
AACAACCG	-0.0212
ATCAACGA	0.000441
CAGGACAC	-0.248

Sequence	PBM 8-mer E-score
TATAATCA	0.389
TGCTGACA	-0.15
CGCAAAAA	0.196
CAAGAATC	-0.161
AGTCCACA	-0.136
CACTTCCA	0.113
AGCGCCTC	-0.314
ACAGTATG	0.184
CGGGTTCA	-0.171
CATATAAC	0.415
ACCCCACT	-0.19
AACATTAT	0.34
CAGATGTA	0.0425
AAGCACAG	-0.107
AAATGTAT	0.311
CAAGCCGA	-0.129
GGTCTTCA	-0.148
CCCTTCGC	-0.248
ACTCCGGG	-0.186
TCTAGCCA	-0.119
AAAGCAAC	0.115
AACAGTCG	0.0234
GGGGATAA	0.171
CCGAAGAG	-0.221
GGGCGTGA	-0.169

Sequence	PBM 8-mer E-score
GCCGCTTA	-0.0763
ACCGAGAG	-0.237
AACGGACC	-0.079
CCAATGAG	-0.167
AGCTGTCG	-0.148
ACAAGTTC	0.183
TATACAAA	0.392
GTCGACAA	-0.0244
AGGCAAAA	-0.118
ATCACAGA	-0.0285
AATTACGC	0.22
CTGACGGC	-0.324
GGAACTAA	0.214
AGCCAGAT	-0.134
CTTGATAA	0.114
GTCAGCAC	-0.0958
ACTCTGTC	-0.0811
GCCACGAA	-0.135
ATACTTTC	0.283
AAAACAGA	0.174
CGCTCGCA	-0.136
CTTCCTAA	-0.0464
CCGCACTA	0.0842
CGTGGGAG	-0.344
CCGAACCC	-0.253

Sequence	PBM 8-mer E-score
ACCCCCAT	-0.0987
ATATGTCC	0.173
CCCCAAAC	-0.0346
ACTCGAAG	-0.183
CCCTCTCA	-0.209
CCCGAGTA	-0.0959
TAATCCAA	0.224
AGGTTTCA	-0.193
GAAGTGTC	0.0566
ACTGAGTG	-0.0362
CCTGCTGC	-0.268
ACTAAGCA	0.0783
ACGCACCA	-0.277
ATCAGAGA	-0.03
CATTCTAA	0.11
AATCACTC	0.0287
ACCCGCGT	-0.208
GTTTCGCA	-0.0431
CATATACC	0.166
GGGGCAGA	-0.284
TACTATCA	0.276
CGATAGTA	0.18
CGATTGAA	0.0954
AGGCCACG	-0.195
TAGCGCGA	-0.133

Sequence	PBM 8-mer E-score
CTGTTTGC	-0.0329
CTACATGA	0.0935
CTAGGCGA	-0.131
GACTTTAC	0.0509
ATTGTTCA	0.149
AGAAGGAA	-0.0232
ACGTGTTA	0.118
AGCGTTAA	0.0464
AGATAGCA	0.0646
ACGGGAAC	-0.19
GAACCAAA	0.0493
AGCATAAA	0.0911
AGCAGTCG	-0.309
AAAGGTAT	0.0686
AGCCACCC	-0.274
ACCGAAAT	0.166
ACGTCCAC	-0.152
TTACGTAA	0.169
AGCCCTTC	-0.267
CAGCTGCA	-0.132
CAAGTCTC	-0.243
CAACTAAG	0.0776
GCTGCGCC	-0.0317
GATAAGAA	0.121
TGAAGACA	0.125

Sequence	PBM 8-mer E-score
CGCGCCGA	-0.291
CCCGGCCA	-0.173
AGCCGACT	-0.0783
TCTGGGCA	-0.17
ACAAACAG	0.231
AGAACGAA	0.102
CGAGCATC	-0.252
AGCCGTAC	-0.134
CGGACCGC	-0.338
AATCTAGA	0.132
GGTGCTCA	-0.128
ATCTAACG	0.0131
AGAAGCAC	-0.065
TGCCACCA	-0.112
ACGTTAAG	0.0601
ACTGATAG	0.00347
AGTAGGAC	-0.0289
AGATCAGA	0.0505
CGTTCTCC	-0.188
ACCTAAGC	-0.191
CGGATACC	-0.178
GAGTTGCC	0.00911
ACAATGCG	0.0092
ACAGTGTA	0.155
ACCCTTGA	-0.222

Sequence	PBM 8-mer E-score
CCCTCGAG	-0.18
ACCTGCAG	-0.0973
AACTGTCA	0.0842
AGTTGCGA	0.0918
CATCTCGC	-0.149
AGCTAGTC	-0.187
AGATGACG	-0.14
AGAGCGAC	-0.23
AAAAACGC	0.0923
CCTATGAG	-0.26
AAGACGTC	-0.00449
AAGATAAT	0.287
GCGGTCAA	-0.0904
CCGCGGTC	-0.286
GCCCTAGC	-0.296
CATATTTA	0.371
AGTGGGGC	-0.172
GAAGTGCA	0.121
TCACGTCA	-0.0625
TTTGCAAA	0.312
GTCTAGCA	-0.19
ACGGTAAA	0.212
ACTCCAAG	0.025
TAAAGTGA	0.202
ACTAGTCT	0.0237

Sequence	PBM 8-mer E-score
AATGGAGA	-0.000257
AGGCAAAG	-0.000395
ATTTGTTG	0.172
GACCCTGC	-0.18
AGGGATAA	0.112
GCCGCCGA	-0.249
ATTCACGA	-0.0574
CGGTAGGA	-0.0651
CGTGCCGA	-0.293
ATCCTACG	-0.133
AGGGCGTA	-0.126
GCACCGGC	-0.287
TACAAGTA	0.305
CCGGTCGA	-0.179
AAACATAA	0.371
TAAACATA	0.312
ATCTACAT	0.12
GGGTACGA	-0.137
CCCACTTC	-0.135
ATATCCAG	0.145
ATAATCCA	0.321
ATAGGGAG	-0.154
GTGCCCAA	-0.071
GAGTATAC	0.253
CAATACGA	0.119

Sequence	PBM 8-mer E-score
ACGGTCTG	-0.101
AATCTGAG	0.0998
CTTTAAAA	0.287
GACTAAGC	-0.0918
CAGCTACA	-0.138
GCCTTGCC	-0.279
TATGACAA	0.13
CAATCAGG	0.00322
GCCGGCCC	-0.211
GACTGTCC	-0.0796
CAAGCTTA	0.0267
GGGAAAAC	0.0894
CGTTAATA	0.31
ATTAAGTA	0.298
GGGACAAC	-0.0115
CGGTTAGC	-0.0337
ACCATTCG	-0.0341
CGTAAGTC	0.0103
ATTGCAAA	0.16
GCACACCC	-0.171
CTACGCCA	-0.204
CCGAAGTC	-0.167
TGCATCCA	-0.0802
TCAGGGCA	-0.0132
ACTACGCT	0.0474

Sequence	PBM 8-mer E-score
AAACCCCT	-0.209
ATTAGAAC	0.135
ACATGAGA	0.0687
AGCACGCA	-0.193
TCTGTTAA	0.148
ATGGGCGC	-0.0923
GGTAAGCA	-0.0662
ACGGGTTG	-0.109
GACGGTCC	-0.273
ACAAGTTG	0.0642
GATGTTCA	0.0298
CCTGCGTC	-0.279
AACAAACA	0.27
AAATTTAG	0.238
GCCAACGA	-0.161
CCGGAGCG	-0.209
CAACGGGC	-0.176
ACGACGAG	-0.0778
AAGCTATT	0.22
